Measured values reported in article PMC4336329 (PLoS ONE, 2015).
Among all 310,000 compounds or so, about 14,000 (4.5%) showed an effect of 50% or more. Effects have a minus sign here. This is one part of the list.

The compounds below were run against human ether-à-go-go-related gene (hERG) potassium channel (human, UniProt Q12809) (assay: primary screen, population patch clamp on CHO cells stably expressing hERG).
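Further: peak tail current of the secondary pulse compared with the same well before compound.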

Sequence of human ether-à-go-go-related gene (hERG) potassium channel (Q12809 whole entry, looked up): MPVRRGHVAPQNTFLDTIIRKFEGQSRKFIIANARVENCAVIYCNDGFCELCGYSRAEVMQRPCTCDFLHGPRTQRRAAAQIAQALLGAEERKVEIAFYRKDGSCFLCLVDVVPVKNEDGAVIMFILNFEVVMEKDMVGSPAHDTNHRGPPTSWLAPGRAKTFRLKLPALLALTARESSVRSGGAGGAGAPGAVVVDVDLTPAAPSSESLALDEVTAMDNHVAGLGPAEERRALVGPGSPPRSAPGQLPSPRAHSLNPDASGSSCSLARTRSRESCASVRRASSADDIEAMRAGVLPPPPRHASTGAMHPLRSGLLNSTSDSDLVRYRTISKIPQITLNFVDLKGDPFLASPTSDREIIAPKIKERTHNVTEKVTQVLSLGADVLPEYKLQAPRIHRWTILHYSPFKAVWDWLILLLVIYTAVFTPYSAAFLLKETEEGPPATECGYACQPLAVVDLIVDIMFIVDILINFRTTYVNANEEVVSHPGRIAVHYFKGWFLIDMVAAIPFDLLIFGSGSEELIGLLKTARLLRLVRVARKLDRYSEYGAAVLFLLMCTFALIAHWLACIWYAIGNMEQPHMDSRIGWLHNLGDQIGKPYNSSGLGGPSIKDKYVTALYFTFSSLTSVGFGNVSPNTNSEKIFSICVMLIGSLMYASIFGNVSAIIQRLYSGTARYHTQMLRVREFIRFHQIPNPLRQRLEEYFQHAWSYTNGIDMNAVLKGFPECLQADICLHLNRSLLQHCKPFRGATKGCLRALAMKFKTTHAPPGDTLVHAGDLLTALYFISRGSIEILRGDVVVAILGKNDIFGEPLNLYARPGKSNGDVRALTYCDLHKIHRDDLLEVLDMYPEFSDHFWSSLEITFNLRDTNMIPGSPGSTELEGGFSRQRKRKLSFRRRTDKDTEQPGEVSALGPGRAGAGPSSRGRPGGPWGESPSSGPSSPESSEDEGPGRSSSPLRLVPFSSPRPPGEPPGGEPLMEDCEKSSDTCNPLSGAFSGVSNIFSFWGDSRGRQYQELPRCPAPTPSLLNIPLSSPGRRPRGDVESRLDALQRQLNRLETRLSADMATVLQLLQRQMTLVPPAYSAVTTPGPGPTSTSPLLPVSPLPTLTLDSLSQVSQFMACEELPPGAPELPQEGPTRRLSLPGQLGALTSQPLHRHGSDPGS

| Structure (SMILES) | hERG current change (%, negative = inhibition) at 10uM |
| --- | --- |
| CC(=O)c1cccc(NC(=O)Nc2cccs2)c1 | 5.62% |
| CCS(=O)(=O)c1ccc(O)c(NC(=O)CC2(CC(=O)O)CCCC2)c1 | 7.15% |
| Cc1ccc(S(=O)(=O)N(C)c2nonc2C)cc1 | -15.6% |
| CC(C)C(NC(=O)COc1ccccc1)C(=O)O (stereo not shown) | -2.4% |
| COc1ccc(C(c2sc3nc(C)nn3c2O)N2CCN(CCO)CC2)cc1OC (stereo not shown) | 2.57% |
| O=C(COc1cccnc1[N+](=O)[O-])Nc1ccccc1Sc1ccccc1 | -16.5% |
| Cc1sc2nc(N3CCOCC3)[nH]c(=O)c2c1-c1ccccc1 | -5.87% |
| COc1ccc2noc3c2c1C(=O)c1ccccc1-3 | 1.04% |
| O=C(Cn1cncn1)N/N=C/c1c2ccccc2cc2ccccc12 | -9.2% |
| Cc1nc2nc(C)c(CCC(=O)NCCCN3CCN(c4cccc(Cl)c4)CC3)c(C)n2n1.Cl | -32.4% |
| CC(C)(C)c1ccc2c(c1)OC(C(=O)N/N=C\c1ccc[nH]1)CO2 (stereo not shown) | -29.6% |
| Cc1cc(Cl)c(S(=O)(=O)NC(C)C)cc1OCC(N)=O | 9.61% |
| CCOC(=O)C1=C(CC)Nc2ccccc2N=C1NC(=O)Nc1ccc(Cl)c(Cl)c1 | -4.88% |
| CCC(=O)N1N=C(c2cccs2)CC1c1ccc(C)cc1 (stereo not shown) | 2.52% |
| COc1c[nH]n(C2CCCCC2)c(=O)c1=O | 1.26% |
| CC(=O)C1C(c2cccc(Oc3ccccc3)c2)NC(=O)NC1(O)C(F)(F)F (stereo not shown) | -2.85% |
| O=C(COc1ccc(Cl)cc1Cl)NCc1ccco1 | 0.837% |
| CCOC(=O)C1(Cc2ccccc2)CCCN(C(=O)c2ccc(-n3ccnc3)cc2)C1 (stereo not shown) | -58.4% |
| CCCc1nc2sc3ccccc3c(=O)c2c(=O)n1CCOC | 9.8% |
| CCOC(=O)c1ccc(NC(=O)Cc2cccs2)cc1 | -7.39% |

| Structure (SMILES) | hERG current change (%, negative = inhibition) at 10uM |
| --- | --- |
| CC1CCC/C(=C\c2ccc(O)cc2)C1=O (stereo not shown) | -0.914% |
| COc1ccc2nc(N3CCC(C)CC3)c(C#N)cc2c1 | 22.5% |
| O=[N+]([O-])c1ccc(Cl)c(CN2CCCCCC2)c1 | -2.55% |
| CCCCNC(=O)c1ccccc1NS(=O)(=O)c1ccc2c(c1)OCCO2 | 0.757% |
| CCCN1CNC(=S)N(c2ccccc2C)C1 | 12.5% |
| CCN1CCN(c2nc(N(C)c3ccccc3)nc(N)c2[N+](=O)[O-])CC1 | 4.31% |
| CC1CCCC(NC(=O)COC(=O)c2cccc(S(=O)(=O)N3CCCCC3)c2)C1C (stereo not shown) | -2.73% |
| COCCCNc1nc2ccccc2[nH]c1=O | 39.2% |
| O=C(CSc1ccccc1)N1CCN(S(=O)(=O)c2ccccc2)CC1 | -4.9% |
| CN(C)c1ccc(CN2CCCCC2)cc1 | 14.9% |
| COC(=O)c1cccnc1NC(=S)NNC(=O)c1ccccc1 | 21.2% |
| COc1ccccc1CCNC(=O)C(=O)NCC1OCCN1S(=O)(=O)c1ccc(Br)cc1 (stereo not shown) | -25.6% |
| CCCOc1ccc(/C=N/Nc2ccccc2[N+](=O)[O-])c(OCCC)c1 | -4.51% |
| Cc1ccc2cc(CN(Cc3ccco3)C(=S)NCC3CCCO3)c(=O)[nH]c2c1 (stereo not shown) | -26.3% |
| CCc1[nH]c(=O)c(C#N)c2c1CCCC2 | -5.05% |
| COC(=O)c1cc(NC2c3ccccc3C(=O)N2c2ccc(Cl)cn2)cc(C(=O)OC)c1 (stereo not shown) | 19.5% |
| CC(C)c1ccc(-c2noc(C3CCCN(S(C)(=O)=O)C3)n2)cc1 (stereo not shown) | 0.5% |
| O=C(O)c1cc2c(cn1)[nH]c1ccccc12 | 10.9% |
| O=C(Cc1ccccc1)NCC(=O)Nc1ccccc1Br | 16.8% |
| CCC(=O)N1CCc2cc(Br)cc(S(=O)(=O)C3(C(=O)OC)CC3)c21 | 7.97% |

| Structure (SMILES) | hERG current change (%, negative = inhibition) at 10uM |
| --- | --- |
| CCc1ccc(CN2CCC(n3nccc3NC(=O)c3cccc(F)c3)CC2)cc1 | -75.3% |
| O=C(NCc1ccc2c(c1)OCO2)c1nc(Cn2ccc([N+](=O)[O-])n2)no1 | -19.1% |
| COC(CNC(=O)CN1CCN(Cc2ccc(F)cc2Cl)C1=O)OC | 2.5% |
| O=C(NCCO)/C(=C\c1cccc([N+](=O)[O-])c1)NC(=O)c1ccco1 | 6.73% |
| CC(=O)c1cn(CC(=O)NCc2ccco2)c2ccccc12 | 3.47% |
| Cc1ccccc1C(=O)N1CCN(c2ccc([N+](=O)[O-])c(NCc3ccco3)c2)CC1 | -8.95% |
| NC(=O)CC(NC(=O)c1ccccc1)c1ccc(NCCc2cccc(F)c2)c([N+](=O)[O-])c1 (stereo not shown) | 14.5% |
| COc1ccc(NC(=O)CN(C)C(=O)CSC(c2ccccc2)c2ccccc2)cc1 | -9.06% |
| Cn1cncc1C#Cc1ccc2cc(CCCO)oc(=O)c2c1 | 19.9% |
| N#C/C(=C\c1ccc(OC(F)F)cc1)C(=O)N1CCCCC1 | -21.8% |
| O=C(CSc1n[nH]c(-c2ccncc2)n1)c1cccc([N+](=O)[O-])c1 | -2.25% |
| CC(NC(=O)Cc1ccc(NC2=NC3CS(=O)(=O)CC3S2)cc1)c1ccccc1 (stereo not shown) | 18.1% |
| O=C(Cc1c(F)cccc1Cl)NNC(=O)Nc1ccc2c(c1)OCO2 | 18.2% |
| Cc1ccccc1C(=O)Nc1ccnn1C1CCN(Cc2cnn(C)c2)CC1 | -26.5% |
| Cc1ccc(NC(=O)CSc2nc3ccccc3c(=O)n2CCCN2CCCCC2)cc1C | -71.9% |
| COc1ccc(C(=O)/C=C/c2ccc(N(C)C)cc2)c(OC)c1 | -15.6% |
| CCCC(OC(=O)CC1Sc2ccccc2NC1=O)C(=O)NCc1ccco1 (stereo not shown) | -13.8% |
| Cc1nn(C)c(Oc2cccc(Cl)c2)c1C#N | 8.31% |
